# The other results are listed elsewhere or left out.
# B1: HML-Native (Hypnea musciformis), P84871 (protein)
# chain: QKFCTLDIAPVCCQIVIGGGMYTAGNACMCEGFVSGVGRCENPKECPCTREAQIPSCCSSRWGLVSVTGKCACDCLGGTVAFPEPCPSPY
# Columns and labels:
# Experiment in all cases: glycan array binding signal (z-score within array); higher = stronger binding
# Details in all cases: glycan notation: IUPAC condensed, linker removed
# [1] = molecular target: Gal(b1-3)GlcNAc(b1-2)Man(a1-3)[Gal(b1-3)GlcNAc(b1-2)Man(a1-6)]Man(b1-4)GlcNAc(b1-4)GlcNAc
# Procedure, shortened: (§1)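 Glycan array data were curated from 3228 arrays in the Consortium for Functional Glycomics database and kept only where the protein sequence was available. Glycan names were converted to IUPAC-condensed notation, and columns mapping to the same glycan were averaged. The binding signal is a within-array Z-score, averaged across arrays of the same protein sequence at different concentrations or buffers and across linkers. Negative Z-scores can be read as non-binding.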
# [2] = molecular target: Gal(b1-3)GlcNAc(b1-2)Man(a1-3)[Gal(b1-3)GlcNAc(b1-2)Man(a1-6)]Man(b1-4)GlcNAc(b1-4)[Fuc(a1-6)]GlcNAc
# Procedure, shortened: as §1
# [3] = molecular target: Gal(b1-3)GlcNAc(b1-2)Man(a1-3)[GlcNAc(b1-4)][Gal(b1-3)GlcNAc(b1-2)Man(a1-6)]Man(b1-4)GlcNAc(b1-4)GlcNAc
# Procedure, shortened: as §1
# [4] = molecular target: Gal(b1-3)GlcNAc(b1-2)[Gal(b1-3)GlcNAc(b1-6)]Man(a1-6)[Gal(b1-3)GlcNAc(b1-2)Man(a1-3)]Man(b1-4)GlcNAc(b1-4)GlcNAc
# Procedure, shortened: as §1
# [5] = molecular target: Gal(b1-3)GlcNAc(b1-3)Gal(b1-3)GlcNAc
# Procedure, shortened: as §1
# [6] = molecular target: Gal(b1-3)GlcNAc(b1-3)Gal(b1-4)Glc
# Procedure, shortened: as §1
# [7] = molecular target: Gal(b1-3)GlcNAc(b1-3)Gal(b1-4)GlcNAc
# Procedure, shortened: as §1
# [8] = molecular target: Gal(b1-3)GlcNAc(b1-3)Gal(b1-4)GlcNAc(b1-2)Man(a1-3)[Gal(b1-3)GlcNAc(b1-3)Gal(b1-4)GlcNAc(b1-2)Man(a1-6)]Man(b1-4)GlcNAc(b1-4)GlcNAc
# Procedure, shortened: as §1
# [9] = molecular target: Gal(b1-3)GlcNAc(b1-3)Gal(b1-4)GlcNAc(b1-2)[Gal(b1-3)GlcNAc(b1-3)Gal(b1-4)GlcNAc(b1-6)]Man(a1-6)[Gal(b1-3)GlcNAc(b1-3)Gal(b1-4)GlcNAc(b1-2)Man(a1-3)]Man(b1-4)GlcNAc(b1-4)[Fuc(a1-6)]GlcNAc
# Procedure, shortened: as §1
# [10] = molecular target: Gal(b1-3)GlcNAc(b1-3)Gal(b1-4)GlcNAc(b1-3)Gal(b1-4)GlcNAc(b1-2)[Gal(b1-3)GlcNAc(b1-3)Gal(b1-4)GlcNAc(b1-3)Gal(b1-4)GlcNAc(b1-6)]Man(a1-6)[Gal(b1-3)GlcNAc(b1-3)Gal(b1-4)GlcNAc(b1-3)Gal(b1-4)GlcNAc(b1-2)Man(a1-3)]Man(b1-4)GlcNAc(b1-4)[Fuc(a1-6)]GlcNAc
# Procedure, shortened: as §1
# [11] = molecular target: Gal(b1-3)GlcNAc(b1-3)Gal(b1-4)GlcNAc(b1-6)[Gal(b1-3)GlcNAc(b1-3)]Gal(b1-4)Glc
# Procedure, shortened: as §1
# [12] = molecular target: Gal(b1-3)GlcNAc(b1-3)Gal(b1-4)[Fuc(a1-3)]GlcNAc
# Procedure, shortened: as §1
# [13] = molecular target: Gal(b1-3)GlcNAc(b1-3)Gal(b1-4)[Fuc(a1-3)]GlcNAc(b1-6)[Gal(b1-3)GlcNAc(b1-3)]Gal(b1-4)Glc
# Procedure, shortened: as §1
# [14] = molecular target: Gal(b1-3)GlcNAc(b1-3)GalNAc
# Procedure, shortened: as §1
# [15] = molecular target: Gal(b1-3)GlcNAc(b1-6)Gal(b1-4)GlcNAc
# Procedure, shortened: as §1
# [16] = molecular target: Gal(b1-3)GlcNAc(b1-6)GalNAc
# Procedure, shortened: as §1
# [17] = molecular target: Gal(b1-3)GlcNAc(b1-6)[Gal(b1-3)]GalNAc
# Procedure, shortened: as §1
# Gal(b1-3)GlcNAc6S = molecular target: Gal(b1-3)GlcNAc6S
# Procedure, shortened: as §1
# [18] = molecular target: Gal(b1-3)[Fuc(a1-4)]GlcNAc
# Procedure, shortened: as §1
# [19] = molecular target: Gal(b1-3)[Fuc(a1-4)]GlcNAc(b1-2)Man
# Procedure, shortened: as §1
# [20] = molecular target: Gal(b1-3)[Fuc(a1-4)]GlcNAc(b1-2)Man(a1-3)[Gal(b1-3)[Fuc(a1-4)]GlcNAc(b1-2)Man(a1-6)]Man(b1-4)GlcNAc(b1-4)[Fuc(a1-6)]GlcNAc
# Procedure, shortened: as §1
# [21] = molecular target: Gal(b1-3)[Fuc(a1-4)]GlcNAc(b1-3)Gal(b1-3)[Fuc(a1-4)]GlcNAc
# Procedure, shortened: as §1
# [22] = molecular target: Gal(b1-3)[Fuc(a1-4)]GlcNAc(b1-3)Gal(b1-4)[Fuc(a1-3)]GlcNAc
# Procedure, shortened: as §1
# [23] = molecular target: Gal(b1-3)[Fuc(a1-4)]GlcNAc(b1-6)GalNAc
# Procedure, shortened: as §1
# [24] = molecular target: Gal(b1-3)[GlcNAc(b1-6)]GalNAc
# Procedure, shortened: as §1
# [25] = molecular target: Gal(b1-3)[Neu5Ac(a2-6)]GalNAc
# Procedure, shortened: as §1
# [26] = molecular target: Gal(b1-3)[Neu5Ac(a2-6)]GlcNAc(b1-4)Gal(b1-4)Glc
# Procedure, shortened: as §1
# [27] = molecular target: Gal(b1-3)[Neu5Ac(b2-6)]GalNAc
# Procedure, shortened: as §1
# Gal(b1-4)Gal = molecular target: Gal(b1-4)Gal
# Procedure, shortened: as §1
# [28] = molecular target: Gal(b1-4)GalNAc(a1-3)[Fuc(a1-2)]Gal(b1-4)GlcNAc
# Procedure, shortened: as §1
# [29] = molecular target: Gal(b1-4)GalNAc(b1-3)[Fuc(a1-2)]Gal(b1-4)GlcNAc
# Procedure, shortened: as §1
# Gal(b1-4)Glc = molecular target: Gal(b1-4)Glc
# Procedure, shortened: as §1
# Gal(b1-4)Glc6S = molecular target: Gal(b1-4)Glc6S
# Procedure, shortened: as §1
# Gal(b1-4)GlcNAc = molecular target: Gal(b1-4)GlcNAc
# Procedure, shortened: as §1
# [30] = molecular target: Gal(b1-4)GlcNAc(a1-6)Gal(b1-4)GlcNAc
# Procedure, shortened: as §1
# Gal(b1-4)GlcNAc(b1-2)Man = molecular target: Gal(b1-4)GlcNAc(b1-2)Man
# Procedure, shortened: as §1
# [31] = molecular target: Gal(b1-4)GlcNAc(b1-2)Man(a1-3)Man(b1-4)GlcNAc(b1-4)GlcNAc
# Procedure, shortened: as §1
# [32] = molecular target: Gal(b1-4)GlcNAc(b1-2)Man(a1-3)[Gal(b1-4)GlcNAc(b1-2)Man(a1-6)]Man(b1-4)GlcNAc(b1-4)GlcNAc
# Procedure, shortened: as §1
# [33] = molecular target: Gal(b1-4)GlcNAc(b1-2)Man(a1-3)[Gal(b1-4)GlcNAc(b1-2)Man(a1-6)]Man(b1-4)GlcNAc(b1-4)[Fuc(a1-6)]GlcNAc
# Procedure, shortened: as §1
# [34] = molecular target: Gal(b1-4)GlcNAc(b1-2)Man(a1-3)[Gal(b1-4)GlcNAc(b1-2)Man(a1-6)][Gal(b1-4)GlcNAc(b1-4)]Man(b1-4)GlcNAc(b1-4)[Fuc(a1-6)]GlcNAc
# Procedure, shortened: as §1
# [35] = molecular target: Gal(b1-4)GlcNAc(b1-2)Man(a1-3)[Gal(b1-4)GlcNAc(b1-2)Man(a1-6)][GlcNAc(b1-4)]Man(b1-4)GlcNAc(b1-4)[Fuc(a1-6)]GlcNAc
# Procedure, shortened: as §1
# [36] = molecular target: Gal(b1-4)GlcNAc(b1-2)Man(a1-3)[GlcNAc(b1-2)Man(a1-6)]Man(b1-4)GlcNAc(b1-4)GlcNAc
# Procedure, shortened: as §1
# [37] = molecular target: Gal(b1-4)GlcNAc(b1-2)Man(a1-3)[GlcNAc(b1-4)][Gal(b1-4)GlcNAc(b1-2)Man(a1-6)]Man(b1-4)GlcNAc(b1-4)GlcNAc
# Procedure, shortened: as §1
# [38] = molecular target: Gal(b1-4)GlcNAc(b1-2)Man(a1-3)[Man(a1-6)]Man(b1-4)GlcNAc(b1-4)GlcNAc
# Procedure, shortened: as §1
# [39] = molecular target: Gal(b1-4)GlcNAc(b1-2)Man(a1-6)Man(b1-4)GlcNAc(b1-4)GlcNAc
# Procedure, shortened: as §1
binder,measurement,setting,value
B1,glycan array binding signal (z-score),[1],-0.216
same,glycan array binding signal (z-score),[2],5.16
same,glycan array binding signal (z-score),[3],-0.276
same,glycan array binding signal (z-score),[4],-0.26
same,glycan array binding signal (z-score),[5],-0.251
same,glycan array binding signal (z-score),[6],-0.202
same,glycan array binding signal (z-score),[7],-0.308
same,glycan array binding signal (z-score),[8],-0.19
same,glycan array binding signal (z-score),[9],-0.074
same,glycan array binding signal (z-score),[10],1.92
same,glycan array binding signal (z-score),[11],-0.208
same,glycan array binding signal (z-score),[12],-0.179
same,glycan array binding signal (z-score),[13],-0.289
same,glycan array binding signal (z-score),[14],-0.362
same,glycan array binding signal (z-score),[15],-0.24
same,glycan array binding signal (z-score),[16],-0.294
same,glycan array binding signal (z-score),[17],-0.208
same,glycan array binding signal (z-score),Gal(b1-3)GlcNAc6S,-0.305
same,glycan array binding signal (z-score),[18],-0.267
same,glycan array binding signal (z-score),[19],-0.178
same,glycan array binding signal (z-score),[20],2.92
same,glycan array binding signal (z-score),[21],-0.247
same,glycan array binding signal (z-score),[22],-0.208
same,glycan array binding signal (z-score),[23],-0.165
same,glycan array binding signal (z-score),[24],-0.254
same,glycan array binding signal (z-score),[25],-0.275
same,glycan array binding signal (z-score),[26],-0.125
same,glycan array binding signal (z-score),[27],-0.25
same,glycan array binding signal (z-score),Gal(b1-4)Gal,-0.238
same,glycan array binding signal (z-score),[28],-0.284
same,glycan array binding signal (z-score),[29],-0.216
same,glycan array binding signal (z-score),Gal(b1-4)Glc,-0.165
same,glycan array binding signal (z-score),Gal(b1-4)Glc6S,-0.313
same,glycan array binding signal (z-score),Gal(b1-4)GlcNAc,-0.292
same,glycan array binding signal (z-score),[30],-0.268
same,glycan array binding signal (z-score),Gal(b1-4)GlcNAc(b1-2)Man,-0.297
same,glycan array binding signal (z-score),[31],-0.213
same,glycan array binding signal (z-score),[32],-0.207
same,glycan array binding signal (z-score),[33],5.65
same,glycan array binding signal (z-score),[34],1.48
same,glycan array binding signal (z-score),[35],1.34
same,glycan array binding signal (z-score),[36],-0.303
same,glycan array binding signal (z-score),[37],-0.193
same,glycan array binding signal (z-score),[38],-0.291
same,glycan array binding signal (z-score),[39],-0.307

# From the supplement of paper PMC8728848
